Consider 72 sequences from paper PMC10726135.

The list shows a part of the results. At the low end of the ranking the order means little. The protein was read in a cell extract, so binding may be indirect.

The test deals with T1, HNF4alpha2 (COS-7 nuclear extract) (UniProt P41235).
T1 sequence: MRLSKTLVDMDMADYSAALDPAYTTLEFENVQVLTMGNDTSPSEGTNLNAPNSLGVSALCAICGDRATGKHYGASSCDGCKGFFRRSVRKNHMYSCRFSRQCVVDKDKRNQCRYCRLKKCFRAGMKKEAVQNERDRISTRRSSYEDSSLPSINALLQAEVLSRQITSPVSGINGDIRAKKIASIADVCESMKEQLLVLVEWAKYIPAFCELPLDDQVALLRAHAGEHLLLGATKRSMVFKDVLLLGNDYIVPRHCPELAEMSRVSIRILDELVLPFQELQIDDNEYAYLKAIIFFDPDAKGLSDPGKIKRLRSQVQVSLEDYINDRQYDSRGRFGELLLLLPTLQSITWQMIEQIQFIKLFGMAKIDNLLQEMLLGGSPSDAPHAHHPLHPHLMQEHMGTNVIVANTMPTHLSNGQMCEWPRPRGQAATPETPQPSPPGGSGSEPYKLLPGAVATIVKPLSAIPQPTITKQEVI
Briefly: protein-binding microarray. The following applies: COS-7 nuclear extract on double-stranded Agilent 4x180k PBM; binding buffer, salt, pH and temperature not given; high values mean tight binding; double strand, one strand shown; sequences stand for … in …GCCTAGGGAGATTAGAGTATCGGTCGA
In the case of ACACCTTTTCTAGCTGAGTTGACCTGTGTT, the binding signal (log2 normalized intensity) amounted to 4.02.
Next, GTCAGGGAAGGTGCCAAGCATTCTAATCAT: -1.07; CTCAGTGTTCCACAGCAAGTAAATTCCGGG: 0.0134.
Next, TTGAAAGGGACTTAGAATCGAATTGTGAAA: -0.196; AAGAAATAAAAACAGCTGGGTTCCAAAAGG: 0.155.
Take TGTCCTTGGCCTCACAGACAGATAGCAAAA: the binding signal (log2 normalized intensity) was -1.07.
The value for CTCTGATCTGACCCCTTCTTGACCTGCGTA was 3.59; that for TTATCAGGACTTTGTGATTACATTGAGTCC was 1.76; that for GTGTTCCCAGGGGCTCCCACCAGGGGGAGG was -1.03.
The value for ATTTAGAGACAATCACTTGTATCGCCTGAA was -0.547; that for TGAGAGAGAAGGCAAGATTTTGTCCTGAGT was -0.289.
For TCTTTTTGCCACTAGGGGTCACTGTCACAT, the binding signal (log2 normalized intensity) was 2.7.
Next, TTACAGTGTGAATCTCCAACAAGGCAGGAG: -0.93; ACCTGTCTCTCTGCATTCCTCCTGGCCTCT: 1.32.
The value for GGAAGTGGGGAAGAAGTGTTCCCCTGTCAC was 1.36; that for TCTGGGGTATAAAGGTCAGGGATAGAACTG was 2.91; that for TTCAGATACAAGCTAATCTGACCAAGTGAA was -0.303.
Next, GGGTTCCAAGACCAAGCAAGCCAGTCAGAA: -1.16; CCCCCAAGGCATGGGACCTTTGCCCTTCTT: 6.09; ATAGTTCAGCCATCAGGTAACATATTGTCC: 0.597.
As to TGTGTGTTCTGGACTTCTCTGCCCTCTTCC, the binding signal (log2 normalized intensity) is 2.98.
The value for GTTATGAGTCTGTTGTCTAACATTTTTGAC was 0.629; that for CATGTTTACTTTTGCAAGGTTTGTTCTTAT was 1.85.
The value for AGGAAAAAAATAGGAGACTGTCTTAGGAAA was -1.16; that for AGGAATGAGACATGAATCCATCCCACCTCA was -0.775.
Consider GCCACGGTCAGCAATGTGGACTTTGTCCTG, for which the binding signal (log2 normalized intensity) stood at 9.67.
The value for CAGAAGGTCAGAGATCAGGTCTCTTTTATG was 1.16.
With TTGCTCATGACTATTCTCTAAACTCTGGGC, the binding signal (log2 normalized intensity) turned out to be 0.606.
Next, CAGGGAAATATGTTCCACCCAGGGTGGCAG: -0.87.
The value for ATCACAAGACATGAAGATGCAGAACAAGGT was -0.697; that for CACTTTGAGCAAGATAATGACTAAGGCAGG was -1.23.
The value for CCCCCACTGCCTGACCCCAAGTAATAGCCG was 5.25; that for CCTGAAACTAGACCAAGAAGACTTTGGGGG was -1.09.
As to GGATAATGTGCCCTTTGTACCTGGGGCAAA, the binding signal (log2 normalized intensity) was found to be 5.03.
The value for GCCTTTTGGCTAAAGTCCAAATTCCTTGGA was 3.74; that for GGACCCTGTTACCACACCACAGCGGGGCCT was -1.1; that for CCTGGCCCTCTGGGTTGGAACCCCGTTTCT was 0.586.
Next, GACGTTATCAGCAGGAGGAGGAGCCAGTGA: -0.808; AAAGTTTGAGGAGAGTCAAAGGTTAATGAG: 2.84; CCAGGCCAACCGGTTCCACAGTATCCCTTG: -1.1.
In the case of GAGGATATCCCTCCGCCTCCCTCCCCCTTT, the binding signal (log2 normalized intensity) was determined as 5.4.
With TGGTGCTGATGTGTTCGCCCCTAGGACACG, the binding signal (log2 normalized intensity) was 1.37.
Next, ATTGGTTTACAGCACTTCATCCTTATGTAA: 1.4; AATAGTACACATCAAAGTATGAGAGCCTGA: -1.14.
The value for CATTCTTTTCCCCATACCAGGCAGTTTCCC was 2.57; that for CCTCCAGGCCCCAGCCACGCCCTCTAACCC was 2.92.
On to CAAGTTTGAACTGCACAGGCCTACTTATAG, for which the binding signal (log2 normalized intensity) is -1.15.
The value for TTCACCAATTTCCCCCATGAAATTGAGATA was 3.17; that for GAACAGGTTCAGATAAGACAAGCTCTGTTT was -1.14; that for TGGCTGCATCCTTCTCCTCCCCTCCCCCCA was 5.97.
The value for CTCCTCCCCCCGCCGCATCTACCAGCGTAA was 4.2; that for ACCTCACAAAGGGGGCCTGAAGGGTGTTGT was 0.874; that for ACAGGCTTAACATAAAGGGTTGAAGAAAGA was -1.08.
The value for GTGCACTTTGACCCTGCTGTAGTGTGTAAG was 4.93; that for AGCAGATGCTTCCCAGAAAGAATGAGCGGG was -1.05; that for GCACTGAGGAATGGAAGGACCTTGGACTGA was 4.38.
CACACACAGACATAAACACAGACACACATG: the binding signal (log2 normalized intensity) is -1.19.
In the case of CAGAGTTCACTTTCCTCTCATTTCTGAACA, the binding signal (log2 normalized intensity) turned out to be 0.895.
With AAAAGGACACAGGGTCTGTTTTCAAACACA, the binding signal (log2 normalized intensity) was -0.841.
Next, GCAAATACAGGTGAATTTCAGTGCCCTTTG: 3.07.
Next, GGGGGAGGGTAAATATAGTTAAAGCCAGCT: -1.09; TCATGATTTAGTAAGTTCAAGAAGACCTTT: 3.54.
Next, CCCAGACACACCTGCAATGGAAAATTCCAT: -1.07.
On to ACGGAAGGCCGGGCCTCAAGGGAATCTGCT, for which the binding signal (log2 normalized intensity) is -1.18.
Take TAATATTTGCAAATGACTTTGAGAGTAAGT: the binding signal (log2 normalized intensity) is 1.01.
The value for AGGTCATTGTGCTGACTGGTTGGAATTCCA was 0.632.
The value for GCTACATGATACAGCCTTTTGCCCCCAGGC was 4.45; that for TCCAAGGTTCAGCTCCATCTGAACTCTTCA was 1.84; that for GCTGAGGAATTTGGACTTCAGCCCAGGCTG was 3.66.
Take TCTGTTTCCAGAAATCTGACCTCTGCCTCG: the binding signal (log2 normalized intensity) is 3.73.
With AGCCTCTATGTCAGGCCATTTCACCTTTGC, the binding signal (log2 normalized intensity) turned out to be 3.72.
Next, CTTCAAGTCAGTTGCATGCAACCTTTGTCC: 5.67.
